Assay results published in PubChem BioAssay AID662 (National Center for Advancing Translational Sciences (NCATS), 2007).
About 1,800 (2.5%) of roughly 71,000 compounds were called active. This list was built around the results that the source calls inconclusive (neither active nor inactive); the mix of calls is not that of the screen. The call rests on the fitted dose curve; in most records, active means well fitted activation curve with a large enough effect in the signal ratio, with a control signal flat (not every such curve was filed as active); inconclusive means small, poorly fitted or top-dose-only effect, or effect the other way, or a change in a side signal; inactive means flat fitted curve, though single readings scatter; the % refers to the signal ratio. Where the call is inconclusive, the potency comes from a doubtful curve fit.

experiment: Cell signaling CRE-BLA (Fsk stim); conditions: CHO CRE-bla reporter (cAMP response element driving beta-lactamase), forskolin EC10, beta-lactamase ratio; activity change, negative = inhibition: at 38.2 µM (top of the series) unless noted; on activity change, negative = inhibition: % of control where 0% means no effect
How it was run: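 CRE-bla CHO reporter cells treated with compound titration plus EC10 NKH 477 (water-soluble forskolin), incubated 3 h at 37 °C; CCF4 loading 2 h at room temperature, 460/530 nm emission ratio read, AC50 values derived for positive or negative modulators.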
Potency means the concentration at half of the fitted maximal effect; tags describe the fitted curve by direction and shape.

Row | Structure (SMILES) | activity change, negative = inhibition | Potency
1 | Cc1ccc(OCC(O)Cn2c(=N)n(CCN3CCOCC3)c3ccccc32)cc1 (stereo unspecified) | inactive: -2.86% | 
2 | CCOC(=O)N1CCC(NC(=O)Cn2ncc3c4ccccc4n(C)c3c2=O)CC1 | inconclusive: -9.31% | 
3 | CCNc1nc(C)c2cc(Br)c(=O)n(CC)c2n1 |  | active: 1 µM
4 | Cc1ccc(-n2ncc(C#N)c2/N=C/N2CCCCCC2)cc1 | inactive: 9.75% | 
5 | CCCCCCCCCCCCCCCCOC[C@@H](COCC(F)(F)F)OP(=O)(O)OCO |  | inconclusive: 31.6 µM [falling, single point]
6 | Cc1nn(-c2ccccc2)c2sc(C(=O)C(C#N)c3ccccn3)cc12 (stereo unspecified) | inactive: 74.5% | 
7 | CCOc1ccc(-n2c(SCC(=O)Nc3cc(C)on3)nc3c([nH]c4ccccc43)c2=O)cc1 |  | active: 1.26 µM
8 | Cc1nn(-c2ccccc2)c2sc(C(=O)N(Cc3ccco3)C(C)C(=O)NC(C)(C)C)cc12 (stereo unspecified) |  | active: 1.58 µM
9 | CCc1cccc2nc3c(c([Si](CC)(CC)CC)c12)Cn1c-3cccc1=O |  | active: 10 µM
10 | O=C(NCc1ccc2c(c1)OCO2)c1ccccn1 | inactive: -2.92% | 
11 | O=S1(=O)c2cccc3cccc(c23)N1Cc1ccc(-c2nnco2)cc1 |  | inconclusive: 6.31 µM [rising, partial curve]
12 | COc1ccc(N2CCN(Cc3nc4c(c(=O)n(C)c(=O)n4C)n3Cc3ccccc3C)CC2)cc1 |  | inconclusive: 10 µM [rising, single point]
13 | CCOC(=O)c1c(NC(=O)CCC(=O)NCc2ccco2)sc2c1CCCC2 |  | inconclusive: 12.6 µM [rising, single point]
14 | CC1(C)CC(=O)C(C(=O)CCCCC(=O)C2C(=O)CC(C)(C)CC2=O)C(=O)C1 | inconclusive: -5.32% | 
15 | Nc1ncnc2c1ncn2[C@H]1O[C@@H](CO)[C@@H](O)[C@H]1N | inactive: -1.33% [at 7.6 µM] | 
16 | Cc1ccc(C(C(=O)NCCc2ccccc2)N(C(=O)c2csnn2)C2CC2)o1 (stereo unspecified) | inactive: 6.07% | 
17 | O=C(Nc1cccc(-c2nc3cccnc3s2)c1)c1ccco1 | inactive: 13.8% | 
18 | COc1cc(C2c3c(oc4ccccc4c3=O)C(=O)N2c2ccc(C)cn2)ccc1O (stereo unspecified) |  | inconclusive: 15.8 µM [rising, single point]
19 | O=C(NC1CC1)C1CCCN(C(=O)Nc2ccc(F)cc2)C1 (stereo unspecified) | inconclusive: -27.6% | 
20 | NS(=O)(=O)c1cc2c(cc1C(F)(F)F)N[C@H](Cc1ccccc1)NS2(=O)=O | inactive: -4.45% [at 17.1 µM] | 
21 | CCCn1c(-c2ccc(F)cc2)nc2c(N3CCN(Cc4nc(OC)cc(OC)n4)CC3)nc(C)nc21 | inactive: 7.55% | 

Row | Structure (SMILES) | activity change, negative = inhibition | Potency
22 | Cc1cc(N2CCN(C3CCCCC3)CC2)nc2cccc(O)c12 | inactive: -26.5% | 
23 | COc1ccc2c(C=Nc3c(C)n(C)n(-c4ccccc4)c3=O)c(O)n(Cc3ccco3)c(=O)c2c1 |  | active: 3.16 µM
24 | COCCn1c(C)cc(C(=O)COC(=O)c2c(C)nn(Cc3ccccc3)c2C)c1C |  | inconclusive: 2.51 µM [falling, full curve, poor fit]
25 | CCc1ccc2nc(NC(=O)c3ccc4c(=O)[nH]c(CN5CCOCC5)nc4c3)sc2c1 | inactive: -2.17% | 
26 | COc1ccc(C(=O)Cn2nnc(-c3ccccc3-n3cnnn3)n2)cc1 | inconclusive: -6.44% | 
27 | C=CCOc1nc(N(C)C)nc(N(C)C)n1 |  | inconclusive: 12.6 µM [rising, single point]
28 | O=C(NC1CCCCCC1)c1cccs1 |  | inconclusive: 0.316 µM [rising, single point]
29 | CCOC(=O)c1cc(-c2ccc(C)o2)nn1CCC#N |  | inconclusive: 12.6 µM [rising, partial curve]
30 | CCOc1ccc(N(CC(=O)N2CCN(c3ccccc3)CC2)S(=O)(=O)c2c(C)noc2C)cc1 | inconclusive: 18.8% [cytotoxic] | 
31 | Cc1ccc(-n2c(SCC(=O)Nc3ccc4cn[nH]c4c3)nnc2-c2ccco2)cc1 | inconclusive: 1.74% | 
32 | Fc1cccc(Cl)c1-c1nnc2ccc(N3CCOCC3)nn12 |  | active: 12.6 µM
33 | CCOC(=O)CCN(Cc1cccs1)S(=O)(=O)c1ccc(F)cc1 | inactive: 13.1% | 
34 | c1ccc(-c2csc3ncn4cnnc4c23)cc1 |  | inconclusive: 2 µM [rising, single point]
35 | Cc1cc(NC(=O)CCS(=O)(=O)c2nc(-c3ccccc3)cc(C(F)(F)F)n2)no1 | inconclusive: -7.71% | 
36 | Cc1ccc(N2CCCn3c2nc2c3c(=O)n(CC(=O)OCc3ccccc3)c(=O)n2C)cc1C | inactive: 8.37% | 
37 | CCN(CC)CCCC(C)n1c(-c2ccccc2)nc2c(NC3CCCCC3)nc(C)nc21 (stereo unspecified) | inactive: -8.05% | 
38 | Cc1nc2nc(SCC(=O)N3CCOCC3)nn2c(C)c1Cc1c(F)cccc1Cl |  | inconclusive: 3.16 µM [rising, single point]
39 | COc1cc2[nH]c(=O)n(CCC(=O)NCc3cccnc3)c(=O)c2cc1OC | inactive: -5.67% | 
40 | O=C(NCc1ccco1)c1cccn2c(=O)c3sccc3nc12 |  | active: 12.6 µM
41 | Cc1noc(NS(=O)(=O)c2ccc(NC(=O)CCn3c(=O)oc4ccccc43)cc2)c1C |  | inconclusive: 1.26 µM [falling, full curve]
